Test results published in PMC9783754.
Where a chain is given by its changes, count along the chain named. Names and notes keep the numbering of the source. Results are given in words; binding and its absence hold for the method and conditions named. Some results given as binding are weak or reduced against the parent protein; the word gives no strength.

Chains of the proteins cited; added tags and fusions are not shown. Lines headed by an entry give the natural chain unless they say otherwise; changes in a name come on top. A line that says so, or that is headed by a name, gives the form on record, which may keep a tag or linker.
UniProt P31151: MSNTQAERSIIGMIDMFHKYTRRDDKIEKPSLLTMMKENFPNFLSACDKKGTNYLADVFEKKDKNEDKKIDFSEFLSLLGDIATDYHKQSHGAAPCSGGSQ
Recombinant human sTNF (soluble form of tumor necrosis factor) (P01375, form named): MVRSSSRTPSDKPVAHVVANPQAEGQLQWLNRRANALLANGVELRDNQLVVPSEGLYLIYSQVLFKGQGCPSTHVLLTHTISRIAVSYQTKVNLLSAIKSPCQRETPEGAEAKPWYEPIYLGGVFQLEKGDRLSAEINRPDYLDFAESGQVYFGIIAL

T1: Recombinant human TNF-β (human) (UniProt P01374)
T1 sequence: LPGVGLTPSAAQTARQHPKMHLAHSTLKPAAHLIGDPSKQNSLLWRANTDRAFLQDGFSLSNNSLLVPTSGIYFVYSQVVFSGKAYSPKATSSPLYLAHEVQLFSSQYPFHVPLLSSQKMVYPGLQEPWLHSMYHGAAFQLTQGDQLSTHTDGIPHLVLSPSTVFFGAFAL

B1: Recombinant human S100A3 (protein, UniProt P33764 1-101)
chain: MARPLEQAVAAIVCTFQEYAGRCGDKYKLCQAELKELLQKELATWTPTEFRECDYNKFMSVLDTNKDCEVDFVEYVRSLACLCLYCHEYFKDCPSEPPCSQ
B2: Recombinant human S100B (protein, UniProt P04271 1-92)
chain: MSELEKAMVALIDVFHQYSGREGDKHKLKKSELKELINNELSHFLEEIKEQEVVDKVMETLDNDGDGECDFQEFMAFVAMVTTACHEFFEHE
B3: Recombinant human S100A8 (protein, UniProt P05109 1-93)
chain: MLTELEKALNSIIDVYHKYSLIKGNFHAVYRDDLKKLLETECPQYIRKKGADVWFKELDINTDGAVNFQEFLILVIKMGVAAHKKSHEESHKE
B4: Recombinant human S100A15 (protein, UniProt Q86SG5 1-101)
chain: MSNTQAERSIIGMIDMFHKYTGRDGKIEKPSLLTMMKENFPNFLSACDKKGIHYLATVFEKKDKNEDKKIDFSEFLSLLGDIAADYHKQSHGAAPCSGGSQ
B5: Recombinant human S100A7 (protein, UniProt P31151 1-101)
chain: B4 chain with G22R, G25D, I52T, H53N, T57D, A84T
B6: Recombinant human S100A14 (protein, UniProt Q9HCY8 1-104)
chain: MGQCRSANAEDAQEFSDVERAIETLIKNFHQYSVEGGKETLTPSELRDLVTQQLPHLMPSNCGLEEKIANLGSCNDSKLEFRSFWELIGEAAKSVKLERPVRGH
B7: Recombinant human S100A9 (protein, UniProt P06702 1-114)
chain: MTCKMSQLERNIETIINTFHQYSVKLGHPDTLNQGEFKELVRKDLQNFLKKENKNEKVIEHIMEDLDTNADKQLSFEEFIMLMARLTWASHEKMHEGDEGPGHHHKPGLGEGTP
B8: Recombinant human S100A16 (protein, UniProt Q96FQ6 1-103)
chain: MSDCYTELEKAVIVLVENFYKYVSKYSLVKNKISKSSFREMLQKELNHMLSDTGNRKAADKLIQNLDANHDGRISFDEYWTLIGGITGPIAKLIHEQEQQSSS
B9: Recombinant human S100P (protein, UniProt P25815 1-95)
chain: MTELETAMGMIIDVFSRYSGSEGSTQTLTKGELKVLMEKELPGFLQSGKDKDAVDKLLKDLDANGDAQVDFSEFIVFVAAITSACHKYFEKAGLK
B10: Recombinant human S100A5 (protein, UniProt P33763 1-92)
chain: METPLEKALTTMVTTFHKYSGREGSKLTLSRKELKELIKKELCLGEMKESSIDDLMKSLDKNSDQEIDFKEYSVFLTMLCMAYNDFFLEDNK
B11: Recombinant human S100A12 (protein, UniProt P80511 1-92)
chain: MTKLEEHLEGIVNIFHQYSVRKGHFDTLSKGELKQLLTKELANTIKNIKDKAVIDEIFQGLDANQDEQVDFQEFISLVAIALKAAHYHTHKE
B12: Recombinant human S100A13 (protein, UniProt Q99584 1-98)
chain: MAAEPLTELEESIETVVTTFFTFARQEGRKDSLSVNEFKELVTQQLPHLLKDVGSLDEKMKSLDVNQDSELKFNEYWRLIGELAKEIRKKKDLKIRKK
B13: Recombinant human S100A11 (protein, UniProt P31949 1-105)
chain: MAKISSPTETERCIESLIAVFQKYAGKDGYNYTLSKTEFLSFMNTELAAFTKNQKDPGVLDRMMKKLDTNSDGQLDFSEFLNLIGGLAMACHDSFLKAVPSQKRT

Target: Recombinant human sTNF (soluble form of tumor necrosis factor) (human) (UniProt P01375)
Experiment: SPR; ligand (50 μg/mL sTNF or TNF-β) immobilised on a ProteOn GLH chip by amine coupling; chip flushed with running buffer for two days and several times with 10 mM glycine pH 3.3 to dissociate sTNF multimers (monomeric sTNF); Ca2+-loaded S100 protein as analyte, 10 nM–2 µM; 25 °C; 10 mM HEPES, 150 mM NaCl, 1 mM CaCl2, 0.05% TWEEN 20, pH 7.4; heterogeneous ligand model; both purified

Binder | binding
B1 | no binding (tested: up to 2 µM; Kd exceed 10^−4 M)
B2 | no binding (tested: up to 2 µM; Kd exceed 10^−4 M)
B3 | no binding (tested: up to 2 µM; Kd exceed 10^−4 M)
B4 | no binding (tested: up to 2 µM; Kd exceed 10^−4 M)
B5 | no binding (tested: up to 2 µM; Kd exceed 10^−4 M)
B6 | no binding (tested: up to 2 µM; Kd exceed 10^−4 M)
B7 | no binding (tested: up to 2 µM; Kd exceed 10^−4 M)
B8 | no binding (tested: up to 2 µM; Kd exceed 10^−4 M)
B9 | no binding (tested: up to 2 µM; Kd exceed 10^−4 M)
B10 | no binding (tested: up to 2 µM; Kd exceed 10^−4 M)

Target: T1, Recombinant human TNF-β (human)
Experiment: as above

binding | Binder
no binding (tested: 2 µM) | B11
no binding (tested: 2 µM) | B12
no binding (tested: 2 µM) | B13

Target: Recombinant human sTNF (soluble form of tumor necrosis factor) (human) (UniProt P01375)
Experiment: cross-linking; 4 µM sTNF and/or S100 protein (sTNF to S100 1:0, 0:1, 1:0.5, 1:1, 1:2), 20 mM EDAC and 5 mM sulfo-NHS, 25 °C, 1.5 h; 10 mM HEPES, 150 mM NaCl, pH 7.4 with 1 mM CaCl2; SDS-PAGE with silver staining; both purified

Binder | binding
B11 | binds
B12 | binds
B13 | binds
